In patent US20240226120A1 (priority 2020, published 2024):

Tested on: HEK293 (human embryonic kidney) cells transfected with empty control vector (pCMV-3Tag-3a)
Experiment: BrdU incorporation colorimetric ELISA, cells transfected with empty control vector
Settings: control plasmid, 1 μM cannabinoid, 24 hours, not normalized to cell number (FIG. 2)

## C=C(C)[C@@H]1CCC(C)=C[C@H]1c1c(O)cc(CCCCC)cc1O [Cannabidiol, 2-[(1R,6R)-3-Methyl-6-(1-methylethenyl)-2-cyclohexen-1-yl]-5-pentyl-1,3-benzenediol]
  incorporation of BrdU / cell proliferation: does not reduce cell proliferation
